The campaign covered roughly 44,000 compounds. About 340 (0.77%) were called active. Roughly 5% stayed inconclusive and do not appear here. Calls follow the shape of the dose curve; as a rule, active = well fitted inhibition curve with a large enough effect; inconclusive = small, poorly fitted or top-dose-only effect; inactive = flat fitted curve, though single readings scatter. Some of the results follow.
Assay: Acumen qHTS Assay for Inhibitors of the mTORC1 Signaling Pathway in MEF (Tsc2-/-, p53-/-) Cells: Sytravon;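 also: plate controls were DMSO for no effect and rapamycin for full effect; nearly all actives have a fitted effect of over 50% in size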
Conditions: phospho-rpS6 immunofluorescence/PI, 24 h; series mostly up to 38.3 µM; activity change, negative = inhibition: at the top concentration
Method in brief: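 Tsc2-/-, p53-/- mouse embryonic fibroblasts (empty-vector line) exposed to compound 24 hrs at 37 C, fixed, immunostained for phospho-rpS6 and counterstained with propidium iodide. Acumen laser scanning gives % positive cells from Alexa 488/PI ratio, thresholded using 7.5 nM rapamycin; PI count gives viability.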

Activity change, negative = inhibition, inactive:
O=C(Nc1cccc(F)c1)C1CCN(S(=O)(=O)c2cccc3nsnc23)CC1 -8.11%, CCn1cc2nc(SCc3cccc(Cl)c3)n(Cc3ccc(C)cc3)c(=O)c2n1 3.81%, CC(C)c1cnc2c(c1SCC(=O)Nc1cccc(F)c1)c(=O)n(C)c(=O)n2C 10%, Cc1ccc(Cl)cc1Nc1nn2c(=O)c3ccc(C(=O)N4CCCC(C)C4)cc3nc2s1 (stereo unspecified) -0.349%, CN(C)c1ccc(CNC(=O)CCn2cccn2)cc1 -11.9%, CCc1ccc(CN2CCc3nc(N4CCN(CC)CC4)ncc3C2)cc1 0%, c1ccc(CSc2nc3ncccc3[nH]2)cc1 1.21%, O=C(Nc1cccc(C(F)(F)F)c1)C1CCCN1S(=O)(=O)c1cccc2nsnc12 (stereo unspecified) -5.59%, Cc1cc(C)cc(OC(C)C(=O)Nc2c(C(=O)c3ccccc3)oc3ccccc23)c1 (stereo unspecified) 3.17%, CSc1ccc(C2c3c(oc4cc(C)cc(C)c4c3=O)C(=O)N2Cc2ccco2)cc1 (stereo unspecified) -1.07%, CCCN(CCC)S(=O)(=O)c1ccc(C(=O)Nc2sc3c(c2C(=O)OC)CCN(CC)C3)cc1 -27%, Cc1ccc(S(=O)(=O)N2CCC(C(=O)Nc3ccc(C)c(Cl)c3)CC2)cc1 -8.27%, CCOC(=O)c1c(C)[nH]c(C)c1S(=O)(=O)N1CCN(c2cccc(C(F)(F)F)c2)CC1 -2.6%, CCN(CC)C(=O)Cn1c(=O)n(-c2ccc(Cl)cc2)c(=O)c2c3c(sc21)CCC3 -10.5%, COc1ccc(CCNC(=O)C(=O)NCC(c2cccs2)S(=O)(=O)c2ccc(C)cc2)cc1 (stereo unspecified) -9.18%, O=C1c2[nH]nc(-c3ccccc3O)c2C(c2cccc(OCc3ccccc3)c2)N1CCO (stereo unspecified) 1.93%, COc1ccc(C(=O)COC(=O)C(Cc2c[nH]c3ccccc23)NC(=O)c2ccc(C(C)(C)C)cc2)cc1 (stereo unspecified) -6.1%, COc1ccc(-n2nc(C)c3c(C(F)(F)F)cc(-c4cccnc4)nc32)cc1 -8.57%, Cc1cn2c(=O)cc(COC(=O)c3cccc(NC(=O)c4ccccc4C)c3)nc2s1 4.06%, CCOC(=O)c1cc(OC(=O)c2ccccc2C)n(-c2ccccc2)n1 -1.42%, COc1cccc(N2CCN(C(=O)CCS(=O)(=O)c3ccc4c(c3)oc(=O)n4C)CC2)c1 -7.07%, COCCCNC(=O)C1CCN(c2nc3ccc(C)cc3[nH]2)CC1 -0.217%, COc1cc(OC)cc(-c2cc3nc(C)c(CCC(=O)NCc4ccc(Cl)cc4)c(C)n3n2)c1 -3.49%, Cc1cccc(N2CCN(C(=O)Cn3ncc4c5ccccc5n(C)c4c3=O)CC2)c1C -11.1%, COc1ccc(C(=O)Nc2ccc(-n3nncc3-c3ccccc3)cc2)cc1OC -9.09%, Cc1cc2oc(=O)cc(C)c2c2occ(-c3ccc(Cl)cc3)c12 4.4%, Cc1ccc2[nH]c3c(=O)n(CC(=O)N4CCCCC4)ncc3c2c1 5.72%, Cc1ccc(C)n1-c1nnc(N2CCCC(C(=O)NCc3cccc(F)c3)C2)s1 (stereo unspecified) -9.62%, COc1ccc(OC)c(CNC(=O)C2CCN(c3nc4ccccc4nc3C(F)(F)F)CC2)c1 3.17%, CCc1ccc(S(=O)(=O)c2cn(Cc3ccccc3)c3cc(F)c(F)cc3c2=O)cc1 9.48%, CCc1ccccc1Nc1nc2ccccc2c2nncn12 -4.97%, Cc1ccc(-n2nc(CO)c(C(=O)NCc3cccnc3)n2)cc1 3.16%, Cc1ccc(OCC(=O)Nc2ccc3nc(SCC(=O)N4CCOCC4)sc3c2)cc1 -9.31%, COc1ccccc1NC(=O)CSc1ncc2c(n1)-c1cc(Cl)ccc1N(Cc1ccccc1)S2(=O)=O -3.45%, CCCCc1c(C)nc2c(-c3ccc(OC)cc3)c(C)[nH]n2c1=O -5.37%, Cn1c(CN2CCCCC2)nc2cc(NC(=O)c3ccccc3Cl)ccc21 -27.6%, CCCCNC(=O)CCCn1c(=O)c2ccccc2n(Cc2cccc(Cl)c2)c1=O -1.71%, CCC(=O)N1CCc2cc(Br)cc(S(=O)(=O)CCC(=O)N3CCN(c4ccccc4F)CC3)c21 3.21%, O=C(NC1CCCC1)c1cc(Nc2cccc(C(F)(F)F)c2)nc2ccccc12 -10.1%, O=C(C1CCN(S(=O)(=O)Cc2ccccc2)CC1)N1CCN(c2ccccc2)CC1 2.89%, Cc1nc2c(c(C)c1CCC(=O)NCc1ccccc1)c(=O)n(C)c(=O)n2C -0.679%, COCCCNC(=O)CSc1nc2c(sc3ccccc32)c(=O)n1CCc1ccccc1 1.77%, COc1cc(NC(=O)CSc2nc3ccccc3nc2Cc2ccc(Cl)cc2)cc(OC)c1 0%, CCOC(=O)c1cccc(NC(=O)c2cc3c(-c4cccc(OC)c4)nn(C)c3s2)c1 -3.81%, Cc1ccc(S(=O)(=O)c2nc(S(C)(=O)=O)sc2N(C)Cc2ccccc2)cc1 1.03%, Cc1cccc(NC(=O)C2CCC(CNS(=O)(=O)c3csc(C(N)=O)c3)CC2)c1C (stereo unspecified) 3.97%, Cc1nn2c(=O)cc(COc3ccc(/C=C(\C#N)C(=O)Nc4ccc(F)cc4)cc3)nc2s1 -0.379%, COc1cccc(Nc2cc(C)nc3nc(-c4ccc(Cl)cc4)nn23)c1 -2.28%, COc1ccc(NCc2cc3cc4c(cc3n(CC(=O)Nc3cc(C)cc(C)c3)c2=O)OCO4)cc1 -4.77%, Cc1nn(C)c2c1c(-c1ccccc1)cc(=O)n2CC(=O)Nc1ccccc1C(F)(F)F -14.9%, CCOC(=O)COc1ccccc1C1C(C(=O)OC)=C(C)NC2=C1C(=O)c1ccccc12 (stereo unspecified) 5.93%, O=C(COc1ccccc1Cl)Nc1nnc(S(=O)(=O)N2CCCCCC2)s1 0%, O=C(NCCCc1nc2ccccc2n1Cc1c(F)cccc1Cl)C1CCCCC1 0.713%, COc1cc(NC(=O)Nc2cccc(-c3noc(C)n3)c2)cc(OC)c1OC -0.376%, Cc1cn2c(=O)cc(COc3ccc(Cl)cc3)nc2s1 3.37%, Cc1ccc(Cl)cc1NC(=O)Cc1ccc(-n2c(C)nc3cccnc32)cc1 0%, CCOc1ccc(-n2c(=O)c3c(C)c(C)sc3n(CC(=O)N(CC)Cc3ccccc3)c2=O)cc1 1.96%, CCOc1ccc(CNc2nc3nc(C)c(Cc4ccccc4)c(=O)n3[nH]2)cc1 7.34%, CCc1ccc(CNC(=O)C2Cc3cc(S(=O)(=O)N4CCCCCC4)ccc3N2C(C)=O)cc1 (stereo unspecified) 0%, COc1ccc(N(Cc2cccs2)C(=O)c2ccc(OCC(C)C)cc2)cc1 -15.6%, CCCc1nn2c(=O)cc(COC(=O)c3ccccc3NC(=O)c3cccs3)nc2s1 26.1%

Reference: PubChem BioAssay AID493208 (National Center for Advancing Translational Sciences (NCATS), 2011)
